According to the supplement of paper PMC4967469:

Compound: Cn1c(=O)n(-c2ccc(C(C)(C)C#N)cc2)c2c3cc(-c4cnc5ccccc5c4)ccc3ncc21 [NVP-BEZ235]
Assay: Viability of human cancer cell lines after 72 h of drug (GDSC screen)
Protocol: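 Human cancer cell lines in 384-well plates, medium with 10% serum, drug for 72 h over a 256-fold dose range (nine 2-fold or five 4-fold steps up to the top dose). Adherent lines were fixed and stained with the nucleic acid dye Syto60, suspension lines read with resazurin; signal relative to control wells, capped at 0 and 100%. One two-parameter sigmoid per drug and line, fitted in a mixed model over all curves with the slope shared within a line.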

**Q.** Which AUC does the source give for “WSU-NHL (lymphoid neoplasm, suspension, top dose 0.25 µM)” here?
**A.** The AUC was 0.534.

**Q.** What about the IC50 of the same cell line?
**A.** Its IC50 is 19.1 nM.

**Q.** Which AUC does the source give for “8505C (thyroid, adherent, top dose 0.25 µM)” here?
**A.** Its AUC is 0.658.

**Q.** What about the IC50 of the same cell line?
**A.** The IC50 was 44.1 nM.

**Q.** Which AUC does the source give for “HCC1937 (breast, adherent, top dose 0.25 µM)” here?
**A.** The AUC was 0.846.

**Q.** What about the IC50 of the same cell line?
**A.** The IC50 was 226 nM.

**Q.** “KELLY (neuroblastoma, adherent, top dose 0.25 µM)” was tested. Which AUC did it give?
**A.** Its AUC is 0.596.

**Q.** What about the IC50 of the same cell line?
**A.** Its IC50 is 27.8 nM.

**Q.** What does the source list for “ES3 (Ewing sarcoma, adherent, top dose 0.25 µM)”?
**A.** AUC: 0.577; IC50: 25.7 nM

**Q.** Which AUC does the source give for “DoTc2-4510 (cervix, adherent, top dose 0.25 µM)” here?
**A.** Its AUC is 0.924.

**Q.** And the IC50?
**A.** The IC50 was greater than 250 nM.

**Q.** Which AUC does the source give for “MV-4-11 (leukaemia, suspension, top dose 0.25 µM)” here?
**A.** The AUC was 0.62.

**Q.** And the IC50?
**A.** Its IC50 is 31.3 nM.

**Q.** What does the source list for “BE-13 (lymphoblastic leukaemia, suspension, top dose 0.25 µM)”?
**A.** AUC: 0.482; IC50: 14 nM

**Q.** What does the source list for “CHP-134 (neuroblastoma, suspension, top dose 0.25 µM)”?
**A.** AUC: 0.796; IC50: 155 nM

**Q.** Which AUC does the source give for “SK-MG-1 (glioma, adherent, top dose 0.25 µM)” here?
**A.** Its AUC is 0.535.

**Q.** What about the IC50 of the same cell line?
**A.** Its IC50 is 19.5 nM.

**Q.** What does the source list for “SNU-387 (liver, adherent, top dose 0.25 µM)”?
**A.** AUC: 0.672; IC50: 50.7 nM

**Q.** With “A498 (kidney, adherent, top dose 0.25 µM)” as the cell line, how does the AUC read?
**A.** Its AUC is 0.709.

**Q.** What about the IC50 of the same cell line?
**A.** The IC50 was 83 nM.

**Q.** Which results are given for “OS-RC-2 (kidney, adherent, top dose 0.25 µM)”?
**A.** AUC: 0.518; IC50: 17.9 nM

**Q.** For “GB-1 (glioma, adherent, top dose 0.25 µM)”, which AUC is on record?
**A.** Its AUC is 0.656.

**Q.** And the IC50?
**A.** Its IC50 is 46 nM.

**Q.** “L-363 (myeloma, suspension, top dose 0.25 µM)” was tested. Which AUC did it give?
**A.** The AUC was 0.408.

**Q.** And the IC50?
**A.** The IC50 was 9.08 nM.

**Q.** Which results are given for “SJSA-1 (bone, adherent, top dose 0.25 µM)”?
**A.** AUC: 0.621; IC50: 35.2 nM

**Q.** How did the AUC turn out when “TK (B-cell lymphoma, suspension, top dose 0.25 µM)” was run?
**A.** Its AUC is 0.796.

**Q.** And the IC50?
**A.** Its IC50 is 105 nM.

**Q.** How did the AUC turn out when “AsPC-1 (pancreas, adherent, top dose 0.25 µM)” was run?
**A.** The AUC was 0.562.

**Q.** And the IC50?
**A.** Its IC50 is 26 nM.

**Q.** With “TE-1 (oesophagus, adherent, top dose 0.25 µM)” as the cell line, how does the AUC read?
**A.** Its AUC is 0.85.

**Q.** And the IC50?
**A.** The IC50 was greater than 250 nM.

**Q.** Which AUC does the source give for “OMC-1 (cervix, adherent, top dose 0.25 µM)” here?
**A.** The AUC was 0.785.

**Q.** And the IC50?
**A.** Its IC50 is 112 nM.

**Q.** Which results are given for “RCM-1 (large intestine, adherent, top dose 0.25 µM)”?
**A.** AUC: 0.895; IC50: > 250 nM

**Q.** What does the source list for “NCI-H835 (lung carcinoid, suspension, top dose 0.25 µM)”?
**A.** AUC: 0.886; IC50: > 250 nM

**Q.** With “NCI-H23 (lung adenocarcinoma, adherent, top dose 0.25 µM)” as the cell line, how does the AUC read?
**A.** Its AUC is 0.828.

**Q.** What about the IC50 of the same cell line?
**A.** Its IC50 is 152 nM.

**Q.** Which results are given for “SIMA (neuroblastoma, adherent, top dose 0.25 µM)”?
**A.** AUC: 0.902; IC50: > 250 nM

**Q.** Which results are given for “HuCCT1 (biliary tract, adherent, top dose 0.25 µM)”?
**A.** AUC: 0.721; IC50: 71.9 nM

**Q.** Which results are given for “NCI-H847 (small cell lung carcinoma, adherent, top dose 0.25 µM)”?
**A.** AUC: 0.923; IC50: > 250 nM

**Q.** Which AUC does the source give for “Mo-T (hairy cell leukaemia, suspension, top dose 0.25 µM)” here?
**A.** The AUC was 0.732.

**Q.** What about the IC50 of the same cell line?
**A.** The IC50 was 72.9 nM.

**Q.** For “A375 (melanoma, adherent, top dose 0.25 µM)”, which AUC is on record?
**A.** Its AUC is 0.531.

**Q.** What about the IC50 of the same cell line?
**A.** The IC50 was 18.7 nM.

**Q.** Which results are given for “RCC-MF (kidney, adherent, top dose 0.25 µM)”?
**A.** AUC: 0.494; IC50: 15 nM

**Q.** For “SAT (head and neck, adherent, top dose 0.25 µM)”, which AUC is on record?
**A.** The AUC was 0.714.

**Q.** And the IC50?
**A.** Its IC50 is 89.1 nM.

**Q.** Which AUC does the source give for “SK-N-AS (neuroblastoma, adherent, top dose 0.25 µM)” here?
**A.** The AUC was 0.764.

**Q.** And the IC50?
**A.** Its IC50 is 105 nM.

**Q.** Which AUC does the source give for “NCI-H929 (myeloma, suspension, top dose 0.25 µM)” here?
**A.** The AUC was 0.436.

**Q.** And the IC50?
**A.** Its IC50 is 10.7 nM.

**Q.** With “OSC-19 (head and neck, adherent, top dose 0.25 µM)” as the cell line, how does the AUC read?
**A.** The AUC was 0.402.

**Q.** What about the IC50 of the same cell line?
**A.** Its IC50 is 8.32 nM.

**Q.** What does the source list for “SK-MEL-31 (melanoma, adherent, top dose 0.25 µM)”?
**A.** AUC: 0.885; IC50: > 250 nM

**Q.** How did the AUC turn out when “HCC1428 (breast, adherent, top dose 0.25 µM)” was run?
**A.** The AUC was 0.827.

**Q.** What about the IC50 of the same cell line?
**A.** Its IC50 is 173 nM.

**Q.** Which results are given for “SU-DHL-5 (B-cell lymphoma, suspension, top dose 0.25 µM)”?
**A.** AUC: 0.373; IC50: 7.67 nM

**Q.** How did the AUC turn out when “KMOE-2 (acute myeloid leukaemia, suspension, top dose 0.25 µM)” was run?
**A.** Its AUC is 0.717.

**Q.** And the IC50?
**A.** Its IC50 is 59.3 nM.

**Q.** What does the source list for “CAS-1 (glioma, adherent, top dose 0.25 µM)”?
**A.** AUC: 0.823; IC50: 224 nM

**Q.** “K2 (melanoma, adherent, top dose 0.25 µM)” was tested. Which AUC did it give?
**A.** Its AUC is 0.847.

**Q.** And the IC50?
**A.** Its IC50 is greater than 250 nM.

**Q.** What does the source list for “VM-CUB-1 (bladder, adherent, top dose 0.25 µM)”?
**A.** AUC: 0.617; IC50: 32.3 nM

**Q.** For “ES1 (Ewing sarcoma, adherent, top dose 0.25 µM)”, which AUC is on record?
**A.** The AUC was 0.658.

**Q.** And the IC50?
**A.** The IC50 was 42.7 nM.

**Q.** Which results are given for “NEC8 (testis, adherent, top dose 0.25 µM)”?
**A.** AUC: 0.744; IC50: 68.3 nM

**Q.** Which AUC does the source give for “SKG-IIIa (cervix, adherent, top dose 0.25 µM)” here?
**A.** Its AUC is 0.788.

**Q.** What about the IC50 of the same cell line?
**A.** The IC50 was 153 nM.

**Q.** Which AUC does the source give for “PC-14 (lung adenocarcinoma, adherent, top dose 0.25 µM)” here?
**A.** The AUC was 0.687.

**Q.** What about the IC50 of the same cell line?
**A.** The IC50 was 48.7 nM.

**Q.** For “EN (endometrium, adherent, top dose 0.25 µM)”, which AUC is on record?
**A.** The AUC was 0.861.

**Q.** What about the IC50 of the same cell line?
**A.** The IC50 was greater than 250 nM.

**Q.** Which AUC does the source give for “NCI-H2009 (lung adenocarcinoma, adherent, top dose 0.25 µM)” here?
**A.** Its AUC is 0.744.

**Q.** And the IC50?
**A.** The IC50 was 82 nM.

**Q.** With “COR-L95 (small cell lung carcinoma, adherent, top dose 0.25 µM)” as the cell line, how does the AUC read?
**A.** The AUC was 0.967.

**Q.** What about the IC50 of the same cell line?
**A.** The IC50 was greater than 250 nM.

**Q.** For “ZR-75-30 (breast, adherent, top dose 0.25 µM)”, which AUC is on record?
**A.** Its AUC is 0.904.

**Q.** What about the IC50 of the same cell line?
**A.** Its IC50 is greater than 250 nM.

**Q.** How did the AUC turn out when “OVISE (ovary, adherent, top dose 0.25 µM)” was run?
**A.** Its AUC is 0.635.

**Q.** And the IC50?
**A.** The IC50 was 41.8 nM.

**Q.** For “CAL-29 (bladder, adherent, top dose 0.25 µM)”, which AUC is on record?
**A.** Its AUC is 0.508.

**Q.** What about the IC50 of the same cell line?
**A.** The IC50 was 16.5 nM.

**Q.** How did the AUC turn out when “MKN7 (stomach, adherent, top dose 0.25 µM)” was run?
**A.** Its AUC is 0.761.

**Q.** And the IC50?
**A.** Its IC50 is 119 nM.

**Q.** With “NCI-H2135 (non-small cell lung carcinoma, adherent, top dose 0.25 µM)” as the cell line, how does the AUC read?
**A.** The AUC was 0.991.

**Q.** What about the IC50 of the same cell line?
**A.** The IC50 was greater than 250 nM.

**Q.** Which AUC does the source give for “8-MG-BA (glioma, adherent, top dose 0.25 µM)” here?
**A.** The AUC was 0.656.

**Q.** What about the IC50 of the same cell line?
**A.** Its IC50 is 40.9 nM.

**Q.** What does the source list for “Ca9-22 (head and neck, adherent, top dose 0.25 µM)”?
**A.** AUC: 0.627; IC50: 34 nM

**Q.** Which AUC does the source give for “HOP-62 (lung adenocarcinoma, adherent, top dose 0.25 µM)” here?
**A.** Its AUC is 0.718.

**Q.** What about the IC50 of the same cell line?
**A.** The IC50 was 64.5 nM.

**Q.** What does the source list for “UACC-62 (melanoma, adherent, top dose 0.25 µM)”?
**A.** AUC: 0.842; IC50: 173 nM

**Q.** Which results are given for “NB69 (neuroblastoma, adherent, top dose 0.25 µM)”?
**A.** AUC: 0.578; IC50: 24.9 nM

**Q.** For “NCI-H2291 (lung adenocarcinoma, adherent, top dose 0.25 µM)”, which AUC is on record?
**A.** Its AUC is 0.864.

**Q.** And the IC50?
**A.** Its IC50 is greater than 250 nM.

**Q.** “MOLT-13 (T-cell lymphoblastic leukaemia, suspension, top dose 0.25 µM)” was tested. Which AUC did it give?
**A.** The AUC was 0.81.

**Q.** How did the AUC turn out when “NCI-H596 (lung adenocarcinoma, adherent, top dose 0.25 µM)” was run?
**A.** The AUC was 0.793.

**Q.** And the IC50?
**A.** Its IC50 is 153 nM.

By IC50 is meant the dose at which the fit gives 50% viability; a fit beyond the top or the lowest dose is shown as a bound at that dose. AUC, from the same fit, is the share of area under the viability curve across the 256-fold dose range: 1 means no effect, lower means more sensitive.
